From article PMC5341729 (Molecular Biology of the Cell, 2017)

Target: T1, MYO10-TPRN^BAIT (taperin fused to MYO10^HMM) (mouse, UniProt A2AI08 1-749)
T1 sequence: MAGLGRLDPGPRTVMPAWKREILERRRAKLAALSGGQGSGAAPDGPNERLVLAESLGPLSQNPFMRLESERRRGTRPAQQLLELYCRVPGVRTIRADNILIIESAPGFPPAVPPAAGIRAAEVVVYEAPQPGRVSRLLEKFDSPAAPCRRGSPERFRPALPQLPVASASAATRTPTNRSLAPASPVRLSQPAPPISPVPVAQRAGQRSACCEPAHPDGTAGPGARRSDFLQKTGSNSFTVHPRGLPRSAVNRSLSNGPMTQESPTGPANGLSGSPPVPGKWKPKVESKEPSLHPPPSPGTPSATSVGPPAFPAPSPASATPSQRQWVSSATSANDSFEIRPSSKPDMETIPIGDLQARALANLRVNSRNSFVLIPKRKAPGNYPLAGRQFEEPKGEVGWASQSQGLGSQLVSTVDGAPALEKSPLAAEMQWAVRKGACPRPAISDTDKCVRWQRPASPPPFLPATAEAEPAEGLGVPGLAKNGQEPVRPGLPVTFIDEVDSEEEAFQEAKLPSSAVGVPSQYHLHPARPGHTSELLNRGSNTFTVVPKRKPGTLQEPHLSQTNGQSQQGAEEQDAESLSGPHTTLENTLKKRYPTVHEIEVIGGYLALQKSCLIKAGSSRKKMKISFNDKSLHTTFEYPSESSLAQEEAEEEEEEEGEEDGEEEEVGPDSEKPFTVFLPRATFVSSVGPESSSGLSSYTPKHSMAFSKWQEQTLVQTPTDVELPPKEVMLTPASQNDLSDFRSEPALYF
Test: NanoSPD

B1: PPP1CC^PREY (natural protein)
chain: not shown
In the case of B1, the “fold increase of prey fluorescence at filopodial tips against MYO10^(NO BAIT)” value is reported as 5.7 fold.
